Laboratory results taken from PubChem BioAssay AID1745853 (National Center for Advancing Translational Sciences (NCATS), 2022).
This is one part of the list. Further columns of the screen follow, without active or inactive calls.

Assays:
Experiment in all cases: Primary Screen for Target Class Profiling of Small Molecule Inhibitors of Methyltransferases
[1] = target: Glycine N-methyltransferase (Homo sapiens) (UniProt Q14749); settings: purified enzyme, MTase-Glo SAH luminescence; measured here: GNMT inhibition; at 40 µM; stronger effect = lower value
In short: (§1)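 Each enzyme was reacted with SAM and its substrate, with compounds tested once at 40 uM; SAH formed was read by MTase-Glo luminescence.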

[2] = target: Guanidinoacetate N-methyltransferase (Homo sapiens) (UniProt Q14353); settings: purified enzyme, MTase-Glo SAH luminescence; measured here: GAMT inhibition; at 40 µM; stronger effect = lower value
In short: as §1

[3] = target: Histamine N-methyltransferase (Homo sapiens) (UniProt P50135); settings: purified enzyme, MTase-Glo SAH luminescence; measured here: HNMT inhibition; at 40 µM; stronger effect = lower value
In short: as §1

[4] = target: Nicotinamide N-methyltransferase (Homo sapiens) (UniProt P40261); settings: purified enzyme, MTase-Glo SAH luminescence; measured here: NNMT inhibition; at 40 µM; stronger effect = lower value
In short: as §1

[5] = target: Phenylethanolamine N-methyltransferase (Homo sapiens) (UniProt P11086); settings: purified enzyme, MTase-Glo SAH luminescence; measured here: PNMT inhibition; at 40 µM; stronger effect = lower value
In short: as §1
On the % scale 0 is the no-effect control and ±100 the full control effect.

| Compound | activity change, negative = inhibition [1] [%] | activity change, negative = inhibition [2] [%] | activity change, negative = inhibition [3] [%] | activity change, negative = inhibition [4] [%] | activity change, negative = inhibition [5] [%] |
| --- | --- | --- | --- | --- | --- |
| CCN(CC)CCNC(=O)CCc1nnc2n(Cc3ccccc3Cl)c(=O)c3ccccc3n12 | -3.23 | -11.6 | -35.1 | -1.89 | -7.36 |
| Cc1cnn(-c2cc(N3CCC(n4cc(C5CCCC5)nn4)CC3)ncn2)c1 | -16.2 | -0.888 | -11.7 | -12.9 | -1.02 |
| Cc1cccc(C(=O)N2CCC(c3noc(CO)n3)C2)c1 (stereo not given) | -2.81 | -2.02 | -0.014 | -10 | -5.72 |
| CCCN1C(=O)c2c(C(=O)Nc3c(C)cc(C)cc3C)ncn2CC1(C)C(=O)NC1CCCC1 (stereo not given) | -4.02 | 0 | -3.42 | -3.28 | -0.284 |
| CC(C)CCn1c(=O)c2ccccc2n2c(CCC(=O)NCCCN3CCOCC3)nnc12 | -4.05 | 4.25 | -3.83 | 9.5 | -0.508 |
| O=C1Nc2ccccc2C2(CCN(C(=O)c3cccnc3)C2)O1 (stereo not given) | -19.6 | -5.99 | -3.47 | -16.6 | -2.43 |
| COc1ccc(-c2cc3n(n2)CC(C)(C(=O)NCc2ccccc2OC)N(C2CC2)C3=O)cc1 (stereo not given) | -2.29 | 0.404 | 3.4 | 3.75 | -0.525 |
| O=C(NCc1ccc(S(=O)(=O)c2cc(F)cc(F)c2)cc1)c1ccc2nccn2c1 | -0.567 | -1.06 | 6.04 | -21.1 | -9.09 |
| Cc1ccc(C)c(NC(=O)N2CCn3c(C)ccc3C2C(C)C)c1 (stereo not given) | 1.7 | 0 | -2.73 | -7.79 | -1.54 |
| CC(c1cccs1)N(C)Cc1ccc(C(F)(F)F)cc1 (stereo not given) | -2.89 | -0.405 | -0.932 | -0.102 | 11 |
| Cc1cc(C)n(CCc2c(-c3ccccc3)ncn2C(C)CCCC(C)(C)O)n1 (stereo not given) | -6.79 | -7.15 | -3.29 | -11 | 1.04 |
| O=C(CCC1CCCN(S(=O)(=O)c2ccccc2)C1)NCCCN1CCCC1=O (stereo not given) | 2.66 | 5.35 | 1 | -1.69 | -0.818 |
| O=C(NC1CCCCC1)c1ccc2c(=O)nc3c(-c4ccc(Cl)cc4)n[nH]n3c2c1 | -0.978 | 1.31 | 5.54 | 4.46 | 1.81 |
| CCc1ccc(CN2CCN(c3ccc(C(N)=O)cn3)CC2)nc1 | -7.35 | -6.22 | -4.46 | -41.7 | -7.77 |
| CC(NC(=O)c1cc2n(n1)CC(C)(C(=O)NC1CCCCC1)N(C)C2=O)c1ccccc1 (stereo not given) | 4.66 | 0 | 2.35 | 6.71 | 2.31 |
| CC(C)Cn1c(=O)c2ccc(C(=O)NC(C)C)cc2n2c(SCC(=O)NC(C)(C)C)nnc12 | -7.46 | 0 | -0.169 | -1.83 | -6.34 |
| CC(C)CNC(=O)c1ccc2c(=O)n(CC(C)C)c3nn(Cc4ccccc4)c(=O)n3c2c1 | -0.984 | 4.53 | -1.01 | 0.245 | 0.097 |
| Cc1cc(CNC(=O)c2cc(C(=O)NCc3ccc(F)c(C)c3)ncn2)ccc1F | 0.288 | -4.49 | 13 | -12 | -3.22 |
